# Results published in PubChem BioAssay AID1986 (Sanford-Burnham Center for Chemical Genomics, 2009).
# Some of the results follow. These are further read-outs of the screen, such as a control signal, another cell line or another target. No call is given for them.
# Experiment: inhibitors of HIV fusion peptide binding, primary screen, biochemical, uHTS, fluorescence dequenching (AID 1986)
# Conditions: cell-free peptide binding, 30 min, measured here: repeat confirmation average inhibition, at 18.6 µM, stronger effect = higher value
row,SMILES,inhibition [%]
1,COc1cc(/C=C2\SC(=S)NC2=O)ccc1OS(=O)(=O)c1ccccc1,66.5
2,COc1cc(Cl)cc(C(c2c(C(=O)O)[nH]c3ccccc23)c2c(C(=O)O)[nH]c3ccccc23)c1O,84.3
3,O=C(O)CCCN1C(=O)/C(=C/c2ccc(-c3nc4ccccc4s3)o2)SC1=S,60.4
4,O=C(CN1C(=O)S/C(=C\c2cccs2)C1=O)Nc1ccc(C(=O)O)c(O)c1,50
5,O=c1cc(-c2ccccc2)nc2c(-c3ccccc3)c(C(F)(F)F)[nH]n12,70.4
6,COc1ccc(/C=C2/SC(=S)N(CC(=O)O)C2=O)cc1OCc1ccc(Cl)cc1,86.3
7,O=C(O)c1cc(NN=C2c3ccccc3-c3ccccc32)ccc1Cl,54.7
8,O=C(NN1C(=O)/C(=C\c2ccc(O)c([N+](=O)[O-])c2)SC1=S)c1ccccc1Cl,53.8
9,N=C1/C(=C/c2ccc(-c3cccc(C(=O)O)c3)o2)C(=O)N=C2SC=C(c3ccccc3)N12,85.2
10,O=c1/c(=C\c2cc([N+](=O)[O-])cc([N+](=O)[O-])c2O)sc2nc3ccccc3n12,109
11,O=C(O)CCCCCN1C(=O)/C(=C\c2cn(-c3ccccc3)nc2-c2cccs2)SC1=S,68.7
12,O=C(CSc1nc2ccccc2c(=O)n1Cc1ccccc1)Nc1ccc(Br)cc1C(=O)O,58.4
13,Cc1cc(/C=c2\sc3nc4ccccc4n3c2=O)c(C)n1-c1ccc(C(=O)O)cc1,63.3
14,COc1ccc(-c2nn(-c3ccccc3)cc2/C=C2/SC(=S)N(CCC(=O)O)C2=O)c(C)c1,67.1
15,Cc1cc(C)c2nc(N3C(=O)C(O)=C(C(=O)c4ccco4)C3c3ccco3)sc2c1 (centres undefined),80.5
16,O=C(NCCc1ccccc1)c1ccc2c(=O)[nH]c3c(C(=O)NCC4CCCO4)sc(=S)n3c2c1 (centres undefined),57.5
17,CCS(=O)(=O)C1=NSC2=NC(=O)/C(=C\c3ccc(OS(=O)(=O)c4ccccc4)c(OC)c3)C(=N)N21,75.3

row,SMILES,inhibition [%]
1,O=C(O)c1cccc(-n2cccc2/C=C2/NC(=O)N(c3ccc(Cl)cc3)C2=O)c1,63.4
2,CCOC(=O)c1sc(N2C(=O)C(O)=C(C(=O)c3ccco3)C2c2ccc([N+](=O)[O-])cc2)nc1C (centres undefined),50
3,C=CCOC(=O)C1=C(C)N=c2s/c(=C3\C(=O)N(CC(=O)O)c4ccccc43)c(=O)n2C1c1ccc(OC)cc1 (centres undefined),55.3
4,CC(C)c1ccc(OCC(=O)Nc2cccc(C(=O)Nc3ccccc3C(=O)O)c2)cc1,58.4
5,Nc1c(S(=O)(=O)O)cc(NC(=O)c2ccccc2)c2c1C(=O)c1ccccc1C2=O,79.7
6,O=[N+]([O-])c1cc(Cl)cc(/C=N/NC(=S)Nc2cc(S(=O)(=O)N3CCOCC3)ccc2Cl)c1O,76.1
7,CC1=C(C#N)C(=O)NC(=O)/C1=C\c1ccc(-c2cc(C)c(C)cc2[N+](=O)[O-])o1,57.7
8,O=C(O)CCN1C(=O)/C(=C2\C(=O)N(Cc3ccc(F)cc3)c3ccccc32)SC1=S,56
9,O=C(O)c1[nH]c2ccccc2c1C(c1ccccc1)c1c(C(=O)O)[nH]c2ccccc12,73.4
10,O=C(O)CN1C(=O)/C(=C\c2cc(Br)ccc2OCc2ccccc2Cl)SC1=S,82.5
11,O=C(CCN1C(=O)/C(=C\C=C\c2ccccc2)SC1=S)Nc1ccccc1C(=O)O,75.8
12,COc1cc(C(c2c(C(=O)O)[nH]c3ccccc23)c2c(C(=O)O)[nH]c3ccccc23)ccc1OCc1ccccc1,86.3
13,O=C(O)CN1C(=O)/C(=C\c2cccc(OCc3ccc(Cl)cc3)c2)SC1=S,64.5
14,COC(=O)c1sc(-c2ccc(C(C)(C)C)cc2)cc1NC(=O)CSCC(=O)O,56.8
15,CCc1nnc(NS(=O)(=O)c2ccc(NC(=S)NC(=O)/C=C/c3ccc(F)cc3)cc2)s1,59.3
16,O=C(O)CN1C(=O)/C(=C\c2ccccc2OCc2ccc(Cl)cc2Cl)SC1=S,69.3
17,O=C(O)CN1C(=O)/C(=C\c2cc(Br)ccc2OCc2ccc(Cl)cc2)SC1=S,67.1
